# Assay results published in the supplement of paper PMC4604168 (melanoma cell lines).
# Some of the results follow. Repeats are few or missing, and single values can be far off.
# How the values were obtained:
# Experiment in all cases: cell count relative to DMSO control; melanoma cells; higher = more viable cells
# Conditions in all cases: library dose: low library concentration; 72 h
# [1] = test system: MZ2-MEL
# [2] = test system: MeWo
# [3] = test system: RPMI7951
# [4] = test system: RVH-421
# [5] = test system: SkMel28
# [6] = test system: SkMel2
# [7] = test system: SkMel30
# [8] = test system: SkMel5
# [9] = test system: UACC257
# [10] = test system: UACC62
# [11] = test system: WM115
# [12] = test system: WM1716
# [13] = test system: WM1745
# [14] = test system: WM3526
# [15] = test system: WM3619
# [16] = test system: WM451Lu
# 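Note: cell number obtained by counting DAPI-stained nuclei in high-throughput microscope images with image analysis software, screen run in 1,536-well plates.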
Compound,cell count [1],cell count [2],cell count [3],cell count [4],cell count [5],cell count [6],cell count [7],cell count [8],cell count [9],cell count [10],cell count [11],cell count [12],cell count [13],cell count [14],cell count [15],cell count [16]
"C=CCNC1=C2C[C@@H](C)C[C@H](OC)[C@H](O)[C@@H](C)/C=C(\C)[C@H](OC(N)=O)[C@@H](OC)/C=C\C=C(/C)C(=O)NC(=CC1=O)C2=O [Tanespimycin] + CN(NC(=O)CC(=O)NN(C)C(=S)c1ccccc1)C(=S)c1ccccc1 [STA4783] (first compound 0.002 µM, partner dose 0.006 µM)",103%,93.5%,107%,101%,98.8%,95.5%,105%,83.1%,82.3%,91.7%,72.4%,77.9%,53.9%,104%,65.3%,88.9%
"C=CCNC1=C2C[C@@H](C)C[C@H](OC)[C@H](O)[C@@H](C)/C=C(\C)[C@H](OC(N)=O)[C@@H](OC)/C=C\C=C(/C)C(=O)NC(=CC1=O)C2=O [Tanespimycin] + Cn1cc(/C=C2\C(=O)Nc3cccnc32)c2ccccc21 [GW441756] (first compound 0.002 µM, partner dose 0.4 µM)",99.4%,102%,82.8%,98.5%,86.8%,122%,104%,75.8%,65.9%,102%,87.4%,106%,85.3%,84.6%,77.4%,113%
"CNC(=O)c1cc(Oc2ccc(NC(=O)Nc3ccc(Cl)c(C(F)(F)F)c3)cc2)ccn1 [sorafenib] + Cn1cc(/C=C2\C(=O)Nc3cccnc32)c2ccccc21 [GW441756] (first compound 0.4 µM, partner dose 0.4 µM)",92%,99.5%,85.8%,92.6%,98.1%,106%,91.9%,76.2%,77.8%,84.9%,97.9%,93.1%,100%,112%,115%,101%
"C[C@@H](Oc1cc(-c2cnn(C3CCNCC3)c2)cnc1N)c1c(Cl)ccc(F)c1Cl [Crizotinib] + OCCn1cc(-c2cnc3nnn(Cc4ccc5ncccc5c4)c3n2)cn1 [PF04217903] (first compound 0.2 µM, partner dose 1 µM)",98.1%,85%,97.6%,106%,82.9%,92.8%,83.2%,89.5%,78.7%,88.3%,80%,84.5%,92%,82.8%,113%,95.7%
"C=CCNC1=C2C[C@@H](C)C[C@H](OC)[C@H](O)[C@@H](C)/C=C(\C)[C@H](OC(N)=O)[C@@H](OC)/C=C\C=C(/C)C(=O)NC(=CC1=O)C2=O [Tanespimycin] + O=C(Nc1ccccc1)c1cc([N+](=O)[O-])ccc1Cl [GW9662] (first compound 0.002 µM, partner dose 2 µM)",95.2%,95.7%,106%,110%,86.2%,107%,112%,107%,85.4%,98.1%,89.5%,103%,95%,109%,97.2%,101%
"CN1CCN(c2ccc3nc(-c4c(N)c5c(F)cccc5[nH]c4=O)[nH]c3c2)CC1 [Dovitinib] + COc1cc(Nc2ncc(F)c(Nc3ccc4c(n3)NC(=O)C(C)(C)O4)n2)cc(OC)c1OC [Tamatinib] (first compound 0.1 µM, partner dose 0.4 µM)",73.7%,83.5%,96.2%,105%,82.9%,91.6%,77.5%,92%,85.8%,90.6%,93.4%,90.8%,65.1%,89.5%,92.2%,118%
"C[C@@H](Oc1cc(-c2cnn(C3CCNCC3)c2)cnc1N)c1c(Cl)ccc(F)c1Cl [Crizotinib] + CCN(CC)CCCCNc1ncc2cc(-c3cc(OC)cc(OC)c3)c(NC(=O)NC(C)(C)C)nc2n1 [PD173074] (first compound 0.2 µM, partner dose 0.1 µM)",101%,103%,101%,122%,99%,102%,113%,91.4%,78.7%,82.4%,91.5%,116%,79.9%,97.5%,92.3%,95.5%
"CNC(=O)c1cc(Oc2ccc(NC(=O)Nc3ccc(Cl)c(C(F)(F)F)c3)cc2)ccn1 [sorafenib] + O=C1NC(=O)/C(=C/c2ccc(-c3ccc(F)cc3O)o2)S1 [AS252424] (first compound 0.4 µM, partner dose 1 µM)",95.2%,97.2%,102%,161%,93.9%,105%,85.2%,95.2%,76.1%,99.6%,98.4%,101%,89.1%,96.3%,90.2%,101%
"CN1CCN(c2ccc3nc(-c4c(N)c5c(F)cccc5[nH]c4=O)[nH]c3c2)CC1 [Dovitinib] + O=C(Nc1cccc(Cl)c1)Nc1ncc(CCNc2ncnc3ccsc23)s1 [SNS314] (first compound 0.1 µM, partner dose 0.0008 µM)",87.6%,97.8%,114%,90%,69.6%,96.2%,59.9%,99.9%,71.5%,89.3%,70.4%,111%,84.5%,96.1%,82%,99.5%
"C[C@@H](Oc1cc(-c2cnn(C3CCNCC3)c2)cnc1N)c1c(Cl)ccc(F)c1Cl [Crizotinib] + CC1(C)NC(=O)N(c2ccc([N+](=O)[O-])c(C(F)(F)F)c2)C1=O [nilutamide] (first compound 0.2 µM, partner dose 1 µM)",106%,90.4%,117%,96%,79.1%,99.7%,96.8%,87.9%,82%,87%,85.5%,96.1%,108%,88.2%,94.2%,91.6%
"CS(=O)(=O)CCNCc1ccc(-c2ccc3ncnc(Nc4ccc(OCc5cccc(F)c5)c(Cl)c4)c3c2)o1 [lapatinib] + CC1(C)NC(=O)N(c2ccc([N+](=O)[O-])c(C(F)(F)F)c2)C1=O [nilutamide] (first compound 0.8 µM, partner dose 1 µM)",108%,103%,92.1%,93.8%,97.1%,106%,126%,101%,97.5%,110%,107%,113%,94.5%,91%,104%,104%
"CN1CCN(c2ccc3nc(-c4c(N)c5c(F)cccc5[nH]c4=O)[nH]c3c2)CC1 [Dovitinib] + C=CCn1c(=O)c2cnc(Nc3ccc(N4CCN(C)CC4)cc3)nc2n1-c1cccc(C(C)(C)O)n1 [MK1775] (first compound 0.1 µM, partner dose 0.02 µM)",84%,84.5%,118%,89.3%,94.5%,95%,96.8%,85.8%,85.9%,75.4%,83.8%,90.7%,67.4%,86.9%,77.6%,82.9%
"CN1CCN(c2ccc3nc(-c4c(N)c5c(F)cccc5[nH]c4=O)[nH]c3c2)CC1 [Dovitinib] + COc1cc2c(Oc3ccc4[nH]c(C)cc4c3F)ncnc2cc1OCCCN1CCCC1 [cediranib] (first compound 0.1 µM, partner dose 0.4 µM)",77.8%,91.1%,113%,95.9%,85.4%,102%,72.4%,90.3%,74.7%,89.4%,94.6%,102%,75.9%,64.8%,109%,109%
"C[C@@H](Oc1cc(-c2cnn(C3CCNCC3)c2)cnc1N)c1c(Cl)ccc(F)c1Cl [Crizotinib] + Oc1cc(-c2nc(-c3ccccc3)[nH]c2-c2ccncc2)ccc1Cl [L779450] (first compound 0.2 µM, partner dose 0.2 µM)",80%,77%,84.5%,153%,76.8%,94.2%,90.3%,95.4%,97.8%,68.2%,85.1%,101%,98.1%,92.2%,96.7%,95.8%
"C[C@@H](Oc1cc(-c2cnn(C3CCNCC3)c2)cnc1N)c1c(Cl)ccc(F)c1Cl [Crizotinib] + NCC(=O)Nc1ccc(-n2nc(C(F)(F)F)cc2-c2ccc3c(ccc4ccccc43)c2)cc1 [OSU03012] (first compound 0.2 µM, partner dose 1 µM)",86.1%,63.1%,99.8%,92%,75.5%,61.8%,62.6%,88.8%,120%,74.5%,75.4%,98%,92.9%,52.8%,116%,78.7%
"CNC(=O)c1cc(Oc2ccc(NC(=O)Nc3ccc(Cl)c(C(F)(F)F)c3)cc2)ccn1 [sorafenib] + COC(=O)c1sccc1S(=O)(=O)Nc1ccc(Nc2ccccc2)cc1OC [GSK0660] (first compound 0.4 µM, partner dose 1 µM)",89%,90.8%,98.2%,105%,82.7%,96.6%,87.8%,113%,80.3%,76.9%,103%,89.5%,88%,93.5%,78.7%,105%
"C=CCNC1=C2C[C@@H](C)C[C@H](OC)[C@H](O)[C@@H](C)/C=C(\C)[C@H](OC(N)=O)[C@@H](OC)/C=C\C=C(/C)C(=O)NC(=CC1=O)C2=O [Tanespimycin] + CCc1ccc(CCOc2ccc(CC3SC(=O)NC3=O)cc2)nc1 [pioglitazone] (first compound 0.002 µM, partner dose 2 µM)",109%,104%,98.9%,98.9%,97.9%,96.9%,129%,94%,99.2%,79.9%,91.8%,90.4%,97%,98.8%,100%,98.4%
